According to ChEMBL document CHEMBL4888484, “Replenishing the malaria drug discovery pipeline: Screening and hit evaluation of the MMV Hit Generation Library 1 (HGL1) against asexual blood stage Plasmodium falciparum ,using a nano luciferase reporter read-out” (2022):
Screen size: about 150,000 compounds; about 540 (0.36%) showed an effect of 50% or more. This is one part of the list.

Each molecule was assayed on Plasmodium falciparum (assay: Primary screen in NF54 nanoGlo assay, in single point, at 2uM, 72h; a lower Z score goes with more inhibition). Conditions: timepoint 72 hour.
Format: functional, Erythrocyte

| SMILES | % Inhibition [%] | Z score |
| --- | --- | --- |
| CCCNC(=O)Nc1ccnc([C@@H]2CCCN2C(=O)OC(C)(C)C)n1 | -9 | 1.64 |
| O=C([C@H](Cc1ccc(O)cc1)c1ccccc1)N1CCC2(CCO2)CC1 | -10 | 1.22 |
| CCc1cc(N2CC3CC2(C)C3)ccn1 | -12 | 1.64 |
| O=C(CCN1CC[C@H](N2CCCC2=O)C1)Nc1ccccc1 | -5 | 0.57 |
| CCOC(=O)c1nc(C)n(C)c1NS(=O)(=O)Cc1ccc(F)c(Cl)c1 | 8 | -1 |
| O=C(CN(CC(=O)NC1CC1)C1CCC(c2ccccc2)CC1)NC1CC1 (stereo unspecified) | -6 | 0.84 |
| C[C@@H](NCc1csc(C2CCCO2)n1)c1ccccc1 (stereo partly specified) | 0 | -0.01 |
| O=C(c1cc(F)c(F)c(F)c1)N1CCC(n2c(-c3ccccc3)nc3ccc(F)cc32)CC1 | -1 | 0.17 |
| CCC(C)OC(=O)CC1NCCNC1=O (stereo unspecified) | -5 | 0.59 |
| CCCc1ccc(C(=O)N2CCC(n3cnc4ccccc43)CC2)cc1 | -12 | 1.77 |
| COc1ccc(C(=O)C[n+]2cc(-c3ccc(OC)cc3)n3c2CCCC3)cc1 | 65 | -8.89 |
| O=C(C[C@H]1CCCOC1)NCc1noc(C2CCCC2)n1 | 1 | -0.14 |
| Cc1cnc(C(=O)N2CCC[C@H](c3c[nH]c4ncccc34)C2)c(C)c1 | -4 | 0.69 |
| CCOC(=O)N1CCN(C(=O)CCc2cc3cc(OC)ccc3nc2O)CC1 | -13 | 2.38 |
| C[C@H](OC(=O)c1cnc2[nH]nnc2c1)c1nc2cc(Cl)ccc2n1C | -21 | 2.92 |
| C1=C(CCn2ccnc2-c2ncc[nH]2)CCCC1 | -14 | 1.9 |
| COc1cc(C(=O)NCC(=O)OCC(=O)N2CCN(c3ccccc3F)CC2)ccc1OC(F)F | -12 | 1.08 |
| O=C(NC1CCCCC1)[C@H]1CN(S(=O)(=O)c2ccccc2Cl)CC12CCOCC2 | -12 | 2.23 |
| Cc1cc(CCNC(=O)Cc2cccs2)on1 | -1 | 0.15 |
| CN(C)S(=O)(=O)N(C)CCOC(=O)c1ccc(F)c(F)c1 | -10 | 1.1 |
| CC(C)C(=O)N1CCC(N[C@H]2CCCc3occc32)CC1 | -2 | 0.26 |
| O=C(CCC1CCCC1)N1CCC[C@H](c2nc(CCOCC3CCOCC3)no2)C1 | -14 | 1.37 |

| SMILES | % Inhibition [%] | Z score |
| --- | --- | --- |
| C[C@@H](CNc1ncccn1)Oc1ccc(F)cc1 | -8 | 1.27 |
| O=S(=O)(c1cccnc1C(F)(F)F)N1CCCC2(CCCCC2)C1 | 8 | -1.05 |
| Cc1nc2c(s1)C(N(C)S(=O)(=O)N(C)CC(C)C#N)CCC2 (stereo unspecified) | -1 | 0.18 |
| FC(F)Oc1ccc(-n2ccnc2-c2cc3n(n2)CCCNC3)cc1 | -7 | 1.32 |
| O=C1N[C@H](c2ccc(Br)cc2F)CO1 | -8 | 1.55 |
| Cc1cn(CC(=O)N2CC[S+]([O-])CC2c2cnn(C)c2)nc1C(F)(F)F (stereo unspecified) | 5 | -0.52 |
| COc1ccc(Oc2c(CN(CC(C)C)C(=O)c3ccccc3)c(-c3ccccc3)nn2C)cc1 | -4 | 0.47 |
| O=C(Nc1nc(C(=O)NCCN2CCOCC2)cs1)c1cccc(F)c1 | -15 | 1.44 |
| Cc1cccc(Cn2c(CNS(=O)(=O)c3ccc(Cl)cc3)nc3cccnc32)c1 | -16 | 2.06 |
| O=c1[nH]c(=O)n(S(=O)(=O)c2ccccc2)cc1F | 90 | -12.13 |
| O=C(c1ccon1)N1CC[C@H]2[C@H](CCC(=O)N2CCc2ccccn2)C1 | 3 | -0.57 |
| COc1cc(OC)c([C@@H](CC(N)=O)c2c(Cc3ccc4c(c3)CCO4)[nH][nH]c2=O)cc1OC | 0 | 0.06 |
| CC(NCC1OCCO1)C1CCCO1 (stereo unspecified) | -15 | 1.9 |
| O=C(O)c1sccc1CN1CCC[C@H]1c1nccc(C(F)(F)F)n1 | -6 | 1.17 |
| COC(=O)c1cc2c(cc1NC(=O)Cc1noc3ccccc13)OCO2 | -11 | 2.08 |
| N#Cc1cc(C(=O)N2CCC[C@H](c3cccc(C(F)(F)F)c3)C2)c[nH]1 | -10 | 1.26 |
| O=C(C1CC2CCC1C2)N1CCN(c2ccccn2)CC1 (stereo unspecified) | 4 | -0.53 |
| CC1(C(=O)O)NC(c2cc(Cl)ccc2O)C2C(=O)N(Cc3ccccc3)C(=O)C21 (stereo unspecified) | -11 | 1.51 |
| O=C(N[C@@H]1CC=C(c2ccc(F)cc2)CC1)c1nc2n(n1)CCCN2 | 36 | -1.32 |
| Cc1ccccc1S(=O)(=O)NCCn1c(-c2ccncc2)nc2ccccc21 | 5 | -0.95 |
| CC(C)[C@H](NC(=O)COC1CCCCC1)c1ccccc1NC(=O)COC1CCCCC1 | 4 | -0.51 |
